Some of the results follow. Rule as the data show it: active = 3.2 or more and inactive = the rest. Only a few entries rise above the background.
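Also: displayed peptides selected on beads carrying the immobilized SH2 domain, with library peptides lacking any tyrosine serving as negative controls.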

For one assay, the target named is SHP2 C-SH2 domain E139D. Kind of assay: enrichment score (SH2-bound / input frequency) (ratio); bacterial display of known human phosphotyrosine sites (pTyr-Var adds point mutants) read by sequencing; higher = stronger binding; tyrosines were phosphorylated by kinases first. The settings on record: peptide library: pTyr-Var.
ITSLLYHVVGW [GBA_Y412_N409S]: the enrichment score is active: 3.21.

On to PFFASYPPSPD [GDAP2_Y491_T489A_YF], for which the enrichment score was inactive: 1.65.

Turning to VDGSVYKLHPS [GCK_Y413], the enrichment score was inactive: 0.732.

RAADYYSQQMA [GBP6_Y334]: the enrichment score was inactive: 0.585.

Consider RIVEIYSRRLQ [GCH1_Y175], for which the enrichment score is inactive: 0.217.

Regarding GDEVEYMSVSF [GCLC_Y53_L55S], the enrichment score is inactive: 0.694.

Consider EILTQYEAMAS [GFAP_Y242_R239L], for which the enrichment score was inactive: 0.887.

For NFYEYYVDDPL [GCHFR_Y48_P53L], the enrichment score was inactive: 1.16.

Regarding PFFTSYPPSPD [GDAP2_Y491_YF], the enrichment score is inactive: 0.961.

On to GISDEYHMIRH [GCDH_Y398_V400M], for which the enrichment score was inactive: 1.12.

For the molecule ENGPFYASFPP [GDAP2_Y488_T489A_YF], the enrichment score is inactive: 0.914.

Regarding GISDEYHVIWH [GCDH_Y398_R402W], the enrichment score was inactive: 1.04.

With SDVSSYLEGQA [GCG_Y110], the enrichment score is inactive: 0.659.

As for TKVTFYKQPMF [GBA_Y451_D448V], the enrichment score was inactive: 0.88.

As to EIRTQYEAMAS [GFAP_Y242], the enrichment score was inactive: 0.506.

Take VKMLPYTEVTR [GDI1_Y93_L92P]: the enrichment score is inactive: 1.13.

In the case of RASDFYSQQMA [GBP6_Y334_A331S_YF], the enrichment score was inactive: 0.704.

In the case of EIRTQDEAMAS [GFAP_Y242_Y242D], the enrichment score is inactive: 0.352.

For another assay, the target named is SHP2 C-SH2 domain wild-type. The assay is described as above. The settings on record: peptide library: pTyr-Var.
ITSLLYHVVGW [GBA_Y412_N409S]: the enrichment score is inactive: 3.1.

In the case of PFFASYPPSPD [GDAP2_Y491_T489A_YF], the enrichment score was inactive: 0.913.

Take VDGSVYKLHPS [GCK_Y413]: the enrichment score was inactive: 0.759.

Consider RAADYYSQQMA [GBP6_Y334], for which the enrichment score is inactive: 0.642.

As for RIVEIYSRRLQ [GCH1_Y175], the enrichment score is inactive: 0.265.

Consider GDEVEYMSVSF [GCLC_Y53_L55S], for which the enrichment score was inactive: 0.64.

As to EILTQYEAMAS [GFAP_Y242_R239L], the enrichment score was inactive: 0.688.

Take NFYEYYVDDPL [GCHFR_Y48_P53L]: the enrichment score is inactive: 1.03.

With PFFTSYPPSPD [GDAP2_Y491_YF], the enrichment score was inactive: 0.967.

For GISDEYHMIRH [GCDH_Y398_V400M], the enrichment score was inactive: 0.856.

ENGPFYASFPP [GDAP2_Y488_T489A_YF]: the enrichment score was inactive: 0.841.

In the case of GISDEYHVIWH [GCDH_Y398_R402W], the enrichment score is inactive: 1.

Turning to SDVSSYLEGQA [GCG_Y110], the enrichment score is inactive: 0.641.

Take TKVTFYKQPMF [GBA_Y451_D448V]: the enrichment score was inactive: 0.86.

Consider EIRTQYEAMAS [GFAP_Y242], for which the enrichment score was inactive: 0.422.

For the molecule VKMLPYTEVTR [GDI1_Y93_L92P], the enrichment score was inactive: 0.908.

For RASDFYSQQMA [GBP6_Y334_A331S_YF], the enrichment score is inactive: 0.546.

For the molecule EIRTQDEAMAS [GFAP_Y242_Y242D], the enrichment score was inactive: 0.294.

Another assay concerns the target SHP2 N-SH2 domain L43F. Described as above. The settings on record: peptide library: pTyr-Var.
In the case of ITSLLYHVVGW [GBA_Y412_N409S], the enrichment score is inactive: 2.91.

PFFASYPPSPD [GDAP2_Y491_T489A_YF]: the enrichment score is inactive: 0.985.

On to VDGSVYKLHPS [GCK_Y413], for which the enrichment score was inactive: 0.727.

Take RAADYYSQQMA [GBP6_Y334]: the enrichment score is inactive: 0.528.

For RIVEIYSRRLQ [GCH1_Y175], the enrichment score was inactive: 0.228.

Regarding GDEVEYMSVSF [GCLC_Y53_L55S], the enrichment score was inactive: 0.819.

Regarding EILTQYEAMAS [GFAP_Y242_R239L], the enrichment score is inactive: 0.771.

NFYEYYVDDPL [GCHFR_Y48_P53L]: the enrichment score is inactive: 0.932.

As to PFFTSYPPSPD [GDAP2_Y491_YF], the enrichment score is inactive: 1.3.

Consider GISDEYHMIRH [GCDH_Y398_V400M], for which the enrichment score was inactive: 0.716.

In the case of ENGPFYASFPP [GDAP2_Y488_T489A_YF], the enrichment score is inactive: 0.589.

With GISDEYHVIWH [GCDH_Y398_R402W], the enrichment score was inactive: 0.987.

On to SDVSSYLEGQA [GCG_Y110], for which the enrichment score is inactive: 0.615.

In the case of TKVTFYKQPMF [GBA_Y451_D448V], the enrichment score is inactive: 0.85.

Take EIRTQYEAMAS [GFAP_Y242]: the enrichment score was inactive: 0.603.

Turning to VKMLPYTEVTR [GDI1_Y93_L92P], the enrichment score is inactive: 0.999.

With RASDFYSQQMA [GBP6_Y334_A331S_YF], the enrichment score was inactive: 0.648.

For EIRTQDEAMAS [GFAP_Y242_Y242D], the enrichment score was inactive: 0.371.

The target of a further assay is SHP2 N-SH2 domain T42A. The description is as above. The settings on record: peptide library: pTyr-Var.
For ITSLLYHVVGW [GBA_Y412_N409S], the enrichment score is inactive: 2.55.

For the molecule PFFASYPPSPD [GDAP2_Y491_T489A_YF], the enrichment score is inactive: 1.21.

Regarding VDGSVYKLHPS [GCK_Y413], the enrichment score was inactive: 0.597.

As for RAADYYSQQMA [GBP6_Y334], the enrichment score was inactive: 0.468.

Turning to RIVEIYSRRLQ [GCH1_Y175], the enrichment score was inactive: 0.157.

As for GDEVEYMSVSF [GCLC_Y53_L55S], the enrichment score was inactive: 0.695.

For EILTQYEAMAS [GFAP_Y242_R239L], the enrichment score was inactive: 0.763.

On to NFYEYYVDDPL [GCHFR_Y48_P53L], for which the enrichment score was inactive: 0.95.

With PFFTSYPPSPD [GDAP2_Y491_YF], the enrichment score was inactive: 1.03.

As to GISDEYHMIRH [GCDH_Y398_V400M], the enrichment score is inactive: 0.698.

On to ENGPFYASFPP [GDAP2_Y488_T489A_YF], for which the enrichment score is inactive: 0.597.

On to GISDEYHVIWH [GCDH_Y398_R402W], for which the enrichment score is inactive: 0.818.

For SDVSSYLEGQA [GCG_Y110], the enrichment score was inactive: 0.567.

In the case of TKVTFYKQPMF [GBA_Y451_D448V], the enrichment score is inactive: 2.85.

For EIRTQYEAMAS [GFAP_Y242], the enrichment score is inactive: 0.447.

On to VKMLPYTEVTR [GDI1_Y93_L92P], for which the enrichment score is inactive: 1.25.

Regarding RASDFYSQQMA [GBP6_Y334_A331S_YF], the enrichment score was inactive: 0.465.

On to EIRTQDEAMAS [GFAP_Y242_Y242D], for which the enrichment score was inactive: 0.351.

The next assay deals with SHP2 N-SH2 domain T52S. The assay is described as above. The settings on record: peptide library: pTyr-Var.
Turning to ITSLLYHVVGW [GBA_Y412_N409S], the enrichment score was inactive: 2.65.

Regarding PFFASYPPSPD [GDAP2_Y491_T489A_YF], the enrichment score was inactive: 1.54.

In the case of VDGSVYKLHPS [GCK_Y413], the enrichment score is inactive: 0.767.

RAADYYSQQMA [GBP6_Y334]: the enrichment score was inactive: 0.527.

For RIVEIYSRRLQ [GCH1_Y175], the enrichment score was inactive: 0.321.

In the case of GDEVEYMSVSF [GCLC_Y53_L55S], the enrichment score is inactive: 0.528.

As to EILTQYEAMAS [GFAP_Y242_R239L], the enrichment score was inactive: 0.754.

In the case of NFYEYYVDDPL [GCHFR_Y48_P53L], the enrichment score was inactive: 1.08.

For the molecule PFFTSYPPSPD [GDAP2_Y491_YF], the enrichment score is inactive: 1.21.

With GISDEYHMIRH [GCDH_Y398_V400M], the enrichment score is inactive: 0.81.

For ENGPFYASFPP [GDAP2_Y488_T489A_YF], the enrichment score is inactive: 0.661.

For the molecule GISDEYHVIWH [GCDH_Y398_R402W], the enrichment score is inactive: 0.886.

As for SDVSSYLEGQA [GCG_Y110], the enrichment score was inactive: 0.692.

On to TKVTFYKQPMF [GBA_Y451_D448V], for which the enrichment score is inactive: 1.14.

EIRTQYEAMAS [GFAP_Y242]: the enrichment score was inactive: 0.498.

As for VKMLPYTEVTR [GDI1_Y93_L92P], the enrichment score was inactive: 0.963.

In the case of RASDFYSQQMA [GBP6_Y334_A331S_YF], the enrichment score was inactive: 0.69.

For EIRTQDEAMAS [GFAP_Y242_Y242D], the enrichment score is inactive: 0.411.

The next assay addresses SHP2 N-SH2 domain wild-type. The description is as above. The settings on record: peptide library: pTyr-Var.
As for ITSLLYHVVGW [GBA_Y412_N409S], the enrichment score is inactive: 3.17.

For the molecule PFFASYPPSPD [GDAP2_Y491_T489A_YF], the enrichment score was inactive: 1.44.

As to VDGSVYKLHPS [GCK_Y413], the enrichment score was inactive: 1.

For RAADYYSQQMA [GBP6_Y334], the enrichment score was inactive: 0.746.

Consider RIVEIYSRRLQ [GCH1_Y175], for which the enrichment score is inactive: 0.17.

As to GDEVEYMSVSF [GCLC_Y53_L55S], the enrichment score is inactive: 0.739.

With EILTQYEAMAS [GFAP_Y242_R239L], the enrichment score was inactive: 0.777.

Regarding NFYEYYVDDPL [GCHFR_Y48_P53L], the enrichment score is inactive: 1.08.

With PFFTSYPPSPD [GDAP2_Y491_YF], the enrichment score was inactive: 1.01.

In the case of GISDEYHMIRH [GCDH_Y398_V400M], the enrichment score is inactive: 0.929.

Consider ENGPFYASFPP [GDAP2_Y488_T489A_YF], for which the enrichment score is inactive: 0.815.

Regarding GISDEYHVIWH [GCDH_Y398_R402W], the enrichment score was inactive: 0.957.

For SDVSSYLEGQA [GCG_Y110], the enrichment score was inactive: 0.665.

Take TKVTFYKQPMF [GBA_Y451_D448V]: the enrichment score is inactive: 1.03.

For the molecule EIRTQYEAMAS [GFAP_Y242], the enrichment score is inactive: 0.63.

Regarding VKMLPYTEVTR [GDI1_Y93_L92P], the enrichment score is inactive: 0.928.

For RASDFYSQQMA [GBP6_Y334_A331S_YF], the enrichment score is inactive: 0.832.

Regarding EIRTQDEAMAS [GFAP_Y242_Y242D], the enrichment score is inactive: 0.356.

The values are drawn from the supplement of paper PMC10369915.
